# The other results are listed elsewhere or left out. Many values rest on one well or one pass, so single values are uncertain.
# How the values were obtained:
# Assay in all cases: cell count relative to DMSO control; melanoma cells; higher = more viable cells
# Conditions in all cases: library dose: standard library concentration; 72 h
# G361 = test system: G361
# IPC-298 = test system: IPC-298
# IST-MEL1 = test system: IST-MEL1
# LB2518-MEL = test system: LB2518-MEL
# LOXIMVI = test system: LOXIMVI
# MEL-HO = test system: MEL-HO
# MZ2-MEL = test system: MZ2-MEL
# MeWo = test system: MeWo
# RPMI7951 = test system: RPMI7951
# RVH-421 = test system: RVH-421
# 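Further: cells treated in 1,536-well plates, then fixed and DAPI-stained, with nuclei counted from automated high-throughput microscope images.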
Compound,cell count (G361) [%],cell count (IPC-298) [%],cell count (IST-MEL1) [%],cell count (LB2518-MEL) [%],cell count (LOXIMVI) [%],cell count (MEL-HO) [%],cell count (MZ2-MEL) [%],cell count (MeWo) [%],cell count (RPMI7951) [%],cell count (RVH-421) [%]
"OCc1c[nH]c2ccccc12 [Indole-3-carbinol] + O=c1cc(-c2cccc3c2Sc2ccccc2S3)oc(N2CCOCC2)c1 [KU55933] (first compound 4 µM, partner dose 5 µM)",98.5,96.5,110,89.1,94.2,90.4,102,95.5,87.5,129
"O=C(CCCCCCC(=O)Nc1ccccc1)NO [vorinostat] + CC(C)CCN1c2nc(Nc3cc(F)c(O)c(F)c3)ncc2N(C)C(=O)C1C [BID1870] (first compound 0.4 µM, partner dose 1 µM)",68.1,62,84.2,83.4,61,69.1,96.5,61.4,61.3,83.7
"COCC[n+]1c2c(n(Cc3cnccn3)c1C)C(=O)c1ccccc1C2=O + c1cc(-c2cnn3cc(-c4ccc(OCCN5CCCCC5)cc4)cnc23)ccn1 [Dorsomorphin] (first compound 0.002 µM, partner dose 2 µM)",43.9,33.9,53.5,16.1,97.8,78.2,16.2,41.6,38.3,116
"OCc1c[nH]c2ccccc12 [Indole-3-carbinol] + Oc1cc(-c2nc(-c3ccccc3)[nH]c2-c2ccncc2)ccc1Cl [L779450] (first compound 4 µM, partner dose 1 µM)",78.5,86.8,84.5,87.7,109,91.6,109,79.5,109,72.2
"Cn1c(Nc2ccc(C(F)(F)F)cc2)nc2cc(Oc3ccnc(-c4ncc(C(F)(F)F)[nH]4)c3)ccc21 + C=CCn1c(=O)c2cnc(Nc3ccc(N4CCN(C)CC4)cc3)nc2n1-c1cccc(C(C)(C)O)n1 [MK1775] (first compound 0.4 µM, partner dose 0.1 µM)",31.6,47.1,74.6,28.3,78.4,58.8,73.4,64,35.3,59.2
"Clc1ccc(Nc2nnc(Cc3ccncc3)c3ccccc23)cc1 [vatalanib] + NCC(=O)Nc1ccc(-n2nc(C(F)(F)F)cc2-c2ccc3c(ccc4ccccc43)c2)cc1 [OSU03012] (first compound 10 µM, partner dose 5 µM)",41.9,39.7,64.9,25.2,46.2,46,18.4,63.5,30,30.4
"C#Cc1cccc(Nc2ncnc3cc(OCCOC)c(OCCOC)cc23)c1 [erlotinib] + Cn1nnc2c(C(N)=O)ncn2c1=O [temozolomide] (first compound 4 µM, partner dose 10 µM)",64,63.2,71.2,70.4,77.9,68.3,71.9,65.7,51.7,60.1
"COCC[n+]1c2c(n(Cc3cnccn3)c1C)C(=O)c1ccccc1C2=O + Cn1cc(/C=C2\C(=O)Nc3cccnc32)c2ccccc21 [GW441756] (first compound 0.002 µM, partner dose 2 µM)",98.9,59.8,53.1,45.2,102,89.8,18.8,89.5,43.2,88.7
"C#Cc1cccc(Nc2ncnc3cc(OCCOC)c(OCCOC)cc23)c1 [erlotinib] + COc1ccc(COc2ccc(Cc3cnc(N)nc3N)cc2OC)cc1 [GW2580] (first compound 4 µM, partner dose 5 µM)",73.2,63.6,92.3,93.8,101,77.6,79.9,79.3,65.8,93.5
"OCc1c[nH]c2ccccc12 [Indole-3-carbinol] + c1cc(-c2cnn3cc(-c4ccc(OCCN5CCCCC5)cc4)cnc23)ccn1 [Dorsomorphin] (first compound 4 µM, partner dose 2 µM)",72.3,95.6,100,82.1,91,87,69.7,80.3,83.9,103
"Cn1c(Nc2ccc(C(F)(F)F)cc2)nc2cc(Oc3ccnc(-c4ncc(C(F)(F)F)[nH]4)c3)ccc21 + COCC[n+]1c2c(n(Cc3cnccn3)c1C)C(=O)c1ccccc1C2=O [YM155] (first compound 0.4 µM, partner dose 0.002 µM)",26.8,31.7,44.7,13.9,87.9,57.5,25.9,36.7,27.3,291
"O=C(CCCCCCC(=O)Nc1ccccc1)NO [vorinostat] + CCCCCCCCCCCC1=C(O)C(=O)C=C(O)C1=O [Embelin] (first compound 0.4 µM, partner dose 6 µM)",73.1,67.8,69.6,74.4,69.6,73.5,78.4,87.4,58,76.4
"COCC[n+]1c2c(n(Cc3cnccn3)c1C)C(=O)c1ccccc1C2=O + Oc1cc(-c2nc(-c3ccccc3)[nH]c2-c2ccncc2)ccc1Cl [L779450] (first compound 0.002 µM, partner dose 1 µM)",56.3,48.2,53,25.5,79.2,76.1,22.2,51.9,33.6,87.2
"Cn1c(Nc2ccc(C(F)(F)F)cc2)nc2cc(Oc3ccnc(-c4ncc(C(F)(F)F)[nH]4)c3)ccc21 + Cn1cc(/C=C2\C(=O)Nc3cccnc32)c2ccccc21 [GW441756] (first compound 0.4 µM, partner dose 2 µM)",26.1,61.3,85.6,30.4,78.3,67.5,66.3,62.2,48.5,54
"COCC[n+]1c2c(n(Cc3cnccn3)c1C)C(=O)c1ccccc1C2=O + O=C(O)C(=O)Nc1sc2c(c1C(=O)O)CCNC2 [TCS401] (first compound 0.002 µM, partner dose 8.33333 µM)",83.7,48.4,57.6,38.5,83.6,93.8,31.4,59.4,33.7,101
"O=C(CCCCCCC(=O)Nc1ccccc1)NO [vorinostat] + OCCn1cc(-c2cnc3nnn(Cc4ccc5ncccc5c4)c3n2)cn1 [PF04217903] (first compound 0.4 µM, partner dose 5 µM)",80.3,92.4,93.2,–,71.6,92.8,–,92.3,63.2,92.1
"COCC[n+]1c2c(n(Cc3cnccn3)c1C)C(=O)c1ccccc1C2=O + CC1(C)NC(=O)N(c2ccc([N+](=O)[O-])c(C(F)(F)F)c2)C1=O [nilutamide] (first compound 0.002 µM, partner dose 5 µM)",84.7,68.8,51.5,49.5,74.7,103,42.3,64.5,39.9,107
"O=C(CCCCCCC(=O)Nc1ccccc1)NO [vorinostat] + COc1ccc(COc2ccc(Cc3cnc(N)nc3N)cc2OC)cc1 [GW2580] (first compound 0.4 µM, partner dose 5 µM)",83.5,86.9,106,81.3,84.8,96.7,83.7,75.7,81.2,76
"C#Cc1cccc(Nc2ncnc3cc(OCCOC)c(OCCOC)cc23)c1 [erlotinib] + COc1ccc(Cl)c(Nc2nc3ccccc3nc2NS(=O)(=O)c2cccc(NC(=O)C(C)(C)N)c2)c1 [XL147] (first compound 4 µM, partner dose 4 µM)",75.6,61.5,78.4,–,118,80.3,–,70,95,77.7
"C#Cc1cccc(Nc2ncnc3cc(OCCOC)c(OCCOC)cc23)c1 [erlotinib] + Oc1cc(-c2nc(-c3ccccc3)[nH]c2-c2ccncc2)ccc1Cl [L779450] (first compound 4 µM, partner dose 1 µM)",64.7,63,80.6,56.8,81.3,72.5,78.5,67.9,64.7,56.5
"Clc1ccc(Nc2nnc(Cc3ccncc3)c3ccccc23)cc1 [vatalanib] + CCCCCCCCCCCC1=C(O)C(=O)C=C(O)C1=O [Embelin] (first compound 10 µM, partner dose 6 µM)",58,52.8,65.4,84.7,87,54.7,66.2,70.4,54.6,44.6
"C#Cc1cccc(Nc2ncnc3cc(OCCOC)c(OCCOC)cc23)c1 [erlotinib] + CCCCCCCCCCCC1=C(O)C(=O)C=C(O)C1=O [Embelin] (first compound 4 µM, partner dose 6 µM)",46.3,53.6,54.8,62.7,95.9,69.6,65.2,74.2,50.3,64
"Clc1ccc(Nc2nnc(Cc3ccncc3)c3ccccc23)cc1 [vatalanib] + Oc1nc(-c2ccc(C(F)(F)F)cc2)nc2c1CSCC2 [XAV939] (first compound 10 µM, partner dose 10 µM)",68.7,78.9,88.6,64.1,85.9,55.1,64.1,57.5,61.3,66.6
"C#Cc1cccc(Nc2ncnc3cc(OCCOC)c(OCCOC)cc23)c1 [erlotinib] + O=C(CCCCCCC(=O)Nc1ccccc1)NO [vorinostat] (first compound 4 µM, partner dose 0.4 µM)",62.3,70.7,91,66.1,59.5,77.9,94.5,96.4,58.8,94.8
"C#Cc1cccc(Nc2ncnc3cc(OCCOC)c(OCCOC)cc23)c1 [erlotinib] + O=C(O)C(=O)Nc1sc2c(c1C(=O)O)CCNC2 [TCS401] (first compound 4 µM, partner dose 8.33333 µM)",66.8,70.5,110,75.1,91.3,85.7,78.8,69.9,95.7,76.7
"Nc1cccc2c1CN(C1CCC(=O)NC1=O)C2=O (stereo unspecified) [lenalidomide] + CO[C@@H]1[C@H](N(C)C(=O)c2ccccc2)C[C@H]2O[C@]1(C)n1c3ccccc3c3c4c(c5c6ccccc6n2c5c31)C(=O)NC4 [Midostaurin] (first compound 5 µM, partner dose 0.4 µM)",71,81.8,81.7,94.9,56.3,88.1,93.1,82.2,68.7,94.4
"C#Cc1cccc(Nc2ncnc3cc(OCCOC)c(OCCOC)cc23)c1 [erlotinib] + COc1ccc(-c2ccc3c(N4CCOCC4)nc(N4C[C@@H](C)O[C@@H](C)C4)nc3n2)cc1CO [KU0063794] (first compound 4 µM, partner dose 0.1 µM)",95.3,71.1,98.1,71.4,101,110,90.5,83.2,68.8,97.4
